From PubChem BioAssay AID1346428 (National Center for Advancing Translational Sciences (NCATS), 2018)
Values joined by “and” are separate entries in the source; they are usually repeats but may differ in a detail not shown here. Identical values can stand only once. The whole screen tested about 48,000 compounds, of which about 1,200 (2.5%) were called active. About 2% were inconclusive and are not listed.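 Rule for the calls: active = activation of at least 60% and not above a set upper limit (about 1 call in 100 departs from these limits); inconclusive = activation of 40% to 60%, or above that upper limit; inactive = activation under 40%.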 The list shows a part of the results. More than one record can exist for a structure, and the calls need not agree.

target: Probable G-protein coupled receptor 32 (Homo sapiens) (UniProt O75388); assay: qHTS for Agonists of Human Resolvin D1 Receptor DRV1; details: CHO-K1 GPR32 beta-arrestin PathHunter luminescence, 90 min; at 76.9 µM; stronger effect = higher value; zero percent set by DMSO-only wells; note: 0% is about no effect
Outline: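 PathHunter enzyme-fragment complementation, CHO-K1 GPR32 stable line; 2,500 cells/well, overnight attach; cpd 90 min 37 °C 5% CO2; detection reagent 1 h RT; chemiluminescence. DMSO = EC0.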

Chain of UniProt O75388 (O75388 whole entry, looked up, the tested form may be a part): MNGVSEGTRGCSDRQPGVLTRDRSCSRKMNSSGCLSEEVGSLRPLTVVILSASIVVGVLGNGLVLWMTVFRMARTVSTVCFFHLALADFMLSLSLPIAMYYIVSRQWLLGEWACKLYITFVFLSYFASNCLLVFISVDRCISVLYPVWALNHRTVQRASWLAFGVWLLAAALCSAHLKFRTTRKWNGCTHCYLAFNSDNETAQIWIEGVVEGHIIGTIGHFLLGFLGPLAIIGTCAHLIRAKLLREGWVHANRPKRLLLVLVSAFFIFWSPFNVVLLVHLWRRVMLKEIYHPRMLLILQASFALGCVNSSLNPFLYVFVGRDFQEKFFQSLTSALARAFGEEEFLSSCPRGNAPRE

activation, inactive:
CCCn1c(=O)n(-c2ccccc2)c(=O)c2sc3ccccc3c21 -4.9%
COC(=O)CN1C(=O)CSc2ccc(S(=O)(=O)Nc3ccc(Cl)cc3C)cc21 -7.72%
CCOC(=O)CSc1nc2cc3c(cc2c(=O)n1CCCC(=O)NCc1ccc2c(c1)OCO2)OCO3 -16.4%
C=Cc1ccc(CSc2nc(-c3ccc(OC)cc3)nc3c2Cc2c(CO)cnc(C)c2O3)cc1 19.5%
CC(C)Cc1nn2c(=O)cc(COC(=O)c3cccc(NC(=O)CCc4ccccc4)c3)nc2s1 -10.5%
Clc1ccc(CCNc2ncnc3c2c(-c2ccccc2)cn3-c2ccccc2)cc1 -38.8%
COc1ccc(C(=O)CN2C(=O)N(c3cc(C)cc(C)c3)S(=O)(=O)c3ccccc32)cc1 -32.2%
COc1ccccc1C(=O)Nc1nc2ccc(S(=O)(=O)N3CCCC3)cc2s1 -21.7%
NCCc1nnc(SCc2ccc(Cl)cc2)o1 -17.5%
COc1ccccc1CNC(=O)Cn1ncc2c(=O)oc3ccc(C)cc3c21 0.341%
CCCCC(=O)Nc1cccc(OCc2cc(=O)n3ccccc3n2)c1 1.71%
COc1cc(C(=O)Nc2cc(C)ccc2OCc2cc(=O)n3cc(C)sc3n2)cc(OC)c1OC 0.112%
Cc1ccccc1CS(=O)(=O)Cc1ccc(C(=O)NCCc2ccccc2)o1 -4.47%
CCOC(=O)c1ccc(Nc2c(-c3ccc(O)cc3)nc3nc[nH]n23)cc1 -21%
COc1ccc(N(C)C(=O)NCc2noc3ccc(C)cc23)c(OC)c1 -12.3%
CCCNC(=O)Nc1cc(C(=O)NCc2cccc(OCC)c2)ccc1N1CCCC1 -23.8%
CC(=O)SC1CC2=CC(=O)CC[C@]2(C)C2CC[C@@]3(C)C(CC[C@@]34CCC(=O)O4)C12 (some centres undefined) -15.6%
Cc1cc(C)c2c(=O)cc(CSCC(=O)Nc3nnc(C)s3)[nH]c2c1 -1.14%
Cc1cccc(NC(=O)C2CCCN(S(=O)(=O)c3c(C)noc3/C=C/N(C)C)C2)c1C (centres undefined) -22.6%
CCC(Sc1nncn2c1cc1sccc12)C(=O)Nc1cccc(OC)c1 (centres undefined) -22.8%
CC(C)(C)C1CCc2nc(NC(=O)Cc3ccc(Cl)cc3)sc2C1 (centres undefined) -35.4%
COc1ccccc1NC(=O)CSCc1cc(=O)c2c(C)cc(C)cc2[nH]1 -11.9%
COc1ccc(C(=O)CCC(=O)Nc2ccccc2C)cc1 -8.4%
C/C(=C(\CCOP(=O)(O)O)SC(=O)c1ccccc1)N(C=O)Cc1cnc(C)nc1N -11.2%
Cc1ccc(CN2CCN(C3CCN(C(=O)OC(C)(C)C)CC3)C(=O)C2=O)cc1 -9.32%
CC(C)(C)c1ccc(C(=O)Nc2ccccc2C(=O)OCc2cc(=O)n3ccsc3n2)cc1 -1.62%
CCC(=O)N1CCc2cc(Br)cc(S(=O)(=O)CCC(=O)Nc3ccccc3C)c21 -3.18%
Cc1cc2nc3c(=O)n(C)c(=O)n(C)c3nc2cc1N=CN(C)C 14.4%
CCOC(=O)CC(NC(=O)Cn1nnc(-c2ccccc2C)n1)c1ccc(OC)cc1 (centres undefined) 7.8%
COc1ccc(-c2nc(SCC(=O)NCCCc3ccccc3)n[nH]2)cc1 9.8%
COc1ccc(NC(=O)CCc2c(C)nn(-c3ccc(N4CCOCC4)nn3)c2C)cc1Cl -12.2%
Cc1ccc2occ(CC(=O)Nc3ccc(S(N)(=O)=O)cc3)c2c1 26%
CCN(CC)CCCNC(=O)c1oc2c(c1C)-c1nn(Cc3ccc(Cl)cc3)cc1CC2 -11.3%
Cc1cccc(-c2noc(C3CC(=O)N(c4ccc5c(c4)OCCO5)C3)n2)c1 (centres undefined) -5.92%
Cc1ccc(N(CC(=O)NC(C)c2ccccc2)S(=O)(=O)c2c(C)noc2C)cc1 (centres undefined) 12.8%
COc1ccc(NC(=O)Cn2c(C)c3cnn(-c4ccccc4)c(=O)c3c2C)c(OC)c1 -0.997%
Cc1cc(OCC(=O)Nc2sc3c(c2C(N)=O)CCCC3)ccc1C(C)C 22.5%
CCc1ccc(C(=O)c2cn(CC(=O)Nc3ccc(F)cc3)c3cc4c(cc3c2=O)OCO4)cc1 13.2%
CCOc1ccc(C2c3c(-c4ccccc4O)n[nH]c3C(=O)N2Cc2ccncc2)cc1 (centres undefined) -7.06%
CCCc1nnc(NC(=O)c2nc(S(=O)(=O)Cc3ccc(C)cc3)ncc2Cl)s1 15.3%
O=C(c1ccc2c(Cl)c3c(nc2c1)CCCC3)N1CCN(c2ccccc2)CC1 -1.46%
CCOC(=O)c1cc(-c2ccccc2)n(CCCC(=O)Nc2ccc(CC)cc2)c1C -14.7%
CC(C)(C)C1CCc2onc(C(=O)Nc3sc4c(c3C(N)=O)CCCC4)c2C1 (centres undefined) -25.5%
Cc1c(Cl)cccc1NC(=O)CCS(=O)(=O)c1ccc(Br)s1 23.3%
NC(=O)c1cc(S(=O)(=O)NCC2CCC(C(=O)Nc3cccc(Cl)c3)CC2)cs1 (centres undefined) 7.48%
Cc1c2cnn(-c3ccccc3)c(=O)c2c(C)n1CCCC(=O)Nc1ccc(F)cc1F 2.49%
Cc1ccc(NC(=O)CSc2nc3ccccc3c3nc(CCn4c(C)nc5ccccc54)nn23)cc1F -10.9%
CCOc1ccccc1NS(=O)(=O)c1c(-c2ccc(C)cc2)csc1C(=O)OC -13.8%
CCOC(=O)c1cc(-c2ccccc2)n(CC(=O)NCc2ccccc2OC)c1C 5.85%
COCCNC(=O)c1ccc2c(c1)N(Cc1cccc(Cl)c1)C(=O)c1ccccc1S2=O (centres undefined) -4.62%
Cc1ccc(C)c(NC(=O)CCNS(=O)(=O)c2ccc3c(c2)CCCC(=O)N3)c1 12.4%
CN(C(=O)CSc1nnc2[nH]c(=O)cc(-c3ccccc3)n12)c1ccccc1 -4.44%
Cn1c(=O)n(C)c2cc(S(=O)(=O)Nc3ccccc3C(=O)O)ccc21 7.75%
Fc1ccc(CNc2ncnc3c2c(-c2ccccc2)cn3-c2ccccc2)cc1 -8.91%
Cc1ccc(C)c(N2CCN(C(=O)CN3C(=O)CSc4c3c(C)nn4-c3ccccc3)CC2)c1 -18.9%
O=C(Nc1ccc(F)c(F)c1)C1CCCN(S(=O)(=O)c2cccc3nonc23)C1 (centres undefined) 2.81%
Cc1ccc(S(=O)(=O)c2[nH]c(-c3ccccc3)nc2SCC(=O)O)cc1 -3.96%
COc1ccc(N2CCN(CC(O)COc3ccc(C(C)(C)C)cc3)CC2)cc1 (centres undefined) 10.3%
Cc1ccc2c(CNCCc3ccc(Cl)cc3)c(C(=O)O)n(Cc3ccc(F)cc3)c2c1 37%
CCOC(=O)c1ccc(NC(=O)CC2C(=O)N(c3ccccc3)C(=O)N2Cc2cccs2)cc1 (centres undefined) 30.8%
CCOc1ccc(CNC(=O)c2ccc3nc(Cc4ccc(OC)cc4)oc3c2)cc1OC 7.98%
O=c1c2sc3ccccc3c2n(Cc2ccccc2)c(=O)n1Cc1ccccc1 -3%
CCc1ccc(CN(C(=O)c2nc(SC)ncc2Cl)C2CCS(=O)(=O)C2)cc1 (centres undefined) -15.7%
CCC(=O)N1c2ccccc2CC1C(=O)N1CCN(c2ccccc2)CC1 (centres undefined) 2.56%
Cc1ccc(Cl)cc1NC(=O)c1ccc(-c2nc(CSc3ccccc3)c(C)o2)cc1 -1.57%
CCN(C(=O)Cc1c(C(=O)O)[nH]c2ccccc12)c1ccc(OC)cc1 9.41%
CC(C)Cc1nn2c(=O)cc(COC(=O)c3ccc(NC(=O)c4cccs4)cc3)nc2s1 -10.1%
CCOc1ccccc1NC(=O)Cn1c(=O)ccc2cc(S(=O)(=O)N3CCC(C)CC3)ccc21 -15.5%
CCOC(=O)c1ccc(NC(=O)CCc2c(C)nc3c(c(C)nn3C)c2C)cc1 35.7%
O=c1c2c3c(sc2nnn1Cc1ccc(Br)cc1)CCCC3 -8.57%
Cc1ccc(OCCCn2c(C3CC(=O)N(c4cccc(Cl)c4)C3)nc3ccccc32)c(C)c1 (centres undefined) 6.99%
CCOC(=O)C1CCN(C(=O)C2COc3ccccc3C2)CC1 (centres undefined) -7.27%
O=C(c1cc2ccccc2oc1=O)N(Cc1cccc(Cl)c1)C1CCS(=O)(=O)C1 (centres undefined) -12.6%
Cc1ccc(CN2CCSc3ccc(C(=O)N4CCN(c5cccc(C)c5C)CC4)cc32)cc1 -13%
O=C(CSc1nccn1Cc1ccc(Cl)cc1)NC1CCCC1 -0.725%
COc1ccc(-c2cnc(C)o2)cc1S(=O)(=O)Nc1ccc(C)c(F)c1 -32.9%
CCOc1ccc(NC(=O)CSc2ncc3c(n2)-c2ccccc2N(C)S3(=O)=O)cc1 20.1%
Cc1ccc(NC(=O)N2CCC(n3c(C)nc4cccnc43)CC2)c(Cl)c1 1.36%
Clc1ccccc1-c1nc(Nc2ccccc2)nc2ccc(Br)cc12 -11%
COCCNC(=O)CCC(=O)NNc1nc2ccccc2c2nc(-c3ccccc3)nn12 -2.89%
CCCCC(CC)COC(=O)C(C#N)=C(c1ccccc1)c1ccccc1 (centres undefined) -3.41%

activation, active:
O=S(=O)(NCCc1csc(-c2ccc(F)cc2)n1)c1ccc(Cl)cc1 63.6%
Cc1ccc(NC(=O)c2cc(S(=O)(=O)N3CCOCC3)c(Cl)cc2Cl)cc1 84%

activation, 92.5% (active) and -46.1% (inactive):
CCN(CC)C(=S)SSC(=S)N(CC)CC
